Data as given in PubChem BioAssay AID1434 (Sanford-Burnham Center for Chemical Genomics, 2008).
Some of the results follow. Further columns of the screen follow, without active or inactive calls. The list favours compounds with an active or inconclusive main result.

These compounds were tested against Runt-related transcription factor 1 (Homo sapiens) + Core-binding factor subunit beta (Homo sapiens) (UniProt Q01196+Q13951) (assay: inhibitors of RUNX1 Runt–CBFb-SMMHC binding, primary screen, biochemical, FRET, Cerulean-Runt, Venus-CBFb-SMMHC, uHTS (AID 1434;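 further: 0% = DMSO wells and 100% = wells with excess untagged CBFb-SMMHC; inhibitors lower the FRET ratio by blocking Runt binding to CBFb-SMMHC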)). Conditions: Cerulean-Runt/Venus-CBFb-SMMHC FRET ratio 530/480, 1 h; retest duplicate average; at 20 µM; stronger effect = higher value.
Sequence of UniProt Q01196 (Q01196 whole entry, looked up): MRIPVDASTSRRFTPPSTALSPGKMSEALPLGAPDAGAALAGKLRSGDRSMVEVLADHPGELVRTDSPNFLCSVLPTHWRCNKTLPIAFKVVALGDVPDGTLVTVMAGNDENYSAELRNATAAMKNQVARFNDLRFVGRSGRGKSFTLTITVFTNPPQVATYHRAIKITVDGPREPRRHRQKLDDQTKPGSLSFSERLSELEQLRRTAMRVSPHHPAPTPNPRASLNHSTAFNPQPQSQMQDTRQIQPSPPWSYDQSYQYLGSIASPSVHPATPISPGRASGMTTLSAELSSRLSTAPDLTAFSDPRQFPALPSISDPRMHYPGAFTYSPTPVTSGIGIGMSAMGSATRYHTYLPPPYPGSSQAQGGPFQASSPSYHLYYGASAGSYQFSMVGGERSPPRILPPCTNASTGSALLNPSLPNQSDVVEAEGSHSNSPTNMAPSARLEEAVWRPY
Sequence of UniProt Q01196 (Q13951 whole entry, looked up): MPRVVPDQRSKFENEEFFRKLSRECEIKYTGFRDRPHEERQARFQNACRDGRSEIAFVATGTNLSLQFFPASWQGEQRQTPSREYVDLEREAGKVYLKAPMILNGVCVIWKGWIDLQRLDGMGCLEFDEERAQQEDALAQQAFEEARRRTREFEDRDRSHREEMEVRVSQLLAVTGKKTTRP

Compound	inhibition
O=C(O)c1ccc(N/N=C/c2ccc(-c3ccccc3Cl)o2)cc1	98%
COCCCn1c(=NC(=O)c2ccc3c(c2)OCO3)c(C#N)cc2c(=O)n3cccc(C)c3nc21	185%
C=CCOC(=O)C(C#N)c1nc2ccccc2nc1N1CCN(Cc2ccccc2)CC1 (configuration not stated)	85.4%
CCN1CC=C2C(C#N)=C(N)C(C#N)(C#N)[C@H](c3cccc(OC)c3OC)[C@H]2C1	83.3%
NC(=O)c1cc2ccc(O)cc2oc1=NCc1ccccc1	71.5%
CCN(CC)c1ccc(/C=C(\C#N)C(=O)NCc2ccco2)cc1	71.5%
COC(=O)Cc1c(C)c2cc(Cl)c(OC(=O)c3ccco3)cc2oc1=O	161%
COC(=O)C1=CN(Cc2ccc(OC)cc2)C=C(C(=O)OC)C1c1ccsc1	139%
CN1Cc2c(N3CCOCC3)nc(SCc3ccccc3)c(C#N)c2CC1(C)C	72.9%
O=C(N/N=C/c1c(O)n(-c2ccc(Cl)cn2)c(=O)c2ccccc12)c1ccncc1	71.5%
O=C(O)c1cc(-c2ccc(/C=N/Nc3ccc(Cl)cc3)o2)ccc1Cl	55.9%
CC(=O)Nc1sc2c(c1-c1nc3ccccc3s1)CCN(C(C)C)C2	70.6%
Cc1cc(C(=O)CN2C(=O)c3cccc(N)c3C2=O)c(C)n1Cc1cccs1	72.9%
CCOC(=O)C1=C(CSc2nc3c(cc2C#N)CN(C)CC3)OC(N)=C(C#N)C1c1ccncc1 (configuration not stated)	67.2%
N#Cc1c2c(c(NCCOCCO)n3c1nc1ccccc13)CCCC2	68.4%
CCN1CCc2nc(NC(=O)c3ccc4c(c3)OCCO4)sc2C1	112%
CCOC(=O)c1cc2c(=O)n3ccccc3nc2n(CCOC)c1=NC(=O)c1c(-c2c(F)cccc2Cl)noc1C	76.7%
O=C(NCc1ccco1)c1ccc2nc3sc4c(c3c(=O)n2c1)CCCC4	72.6%
N#Cc1cc2c(=O)n3ccccc3nc2n(Cc2ccco2)c1=NC(=O)c1ccco1	71.5%
Cn1c(=O)c2nc3ccccc3nc2n(C)c1=O	74.2%
O=c1oc2ccc3ccccc3c2c2c1SC(C(F)(F)F)C2 (configuration not stated)	61.1%
CC(C)c1[nH]nc2c1C1(CCN(Cc3ccccc3)CC1)C(C#N)=C(N)O2	83.4%
CCOCCCn1c(=NC(=O)c2ccco2)c(C(=O)OCC)cc2c(=O)n3cccc(C)c3nc21	70.6%
O=C1C=CC(=O)N1N(c1ccccc1)c1ccccc1	67.2%
Cc1ccc(C(=O)NCCn2c(N)c(C#N)c3nc4ccccc4nc32)cc1	71.6%
O=c1ccc2cc(O)c(O)cc2o1	71.5%

Compound	inhibition
CCOC(=O)c1cc2c(=O)n3ccccc3nc2n(Cc2ccco2)c1=NC(=O)c1ccc(OC)cc1	152%
CCOC(=O)c1c2ccc(OCC(=O)NN)cc2n2ccccc12	70.6%
N#CC1(C#N)CC(C=O)=C(N)C1(C#N)CC(=O)c1ccc(F)cc1 (configuration not stated)	64.8%
CCCCn1c(NS(=O)(=O)c2ccccc2)c(S(=O)(=O)c2ccc(C)cc2)c2nc3ccccc3nc21	55.8%
CCOC(=O)/C(C#N)=C1/C=C(C)c2ccccc2N1	98.2%
Cc1c(Cc2ccccc2)c(NCCN(C)C)n2c(nc3ccccc32)c1C#N	63.6%
Cn1c(=O)nc2n(Cc3ccccc3)c3cccc(Cl)c3cc-2c1=O	71.5%
CCOC(=O)/C(=C/c1ccc(N2CCC(c3ccccc3)=N2)cc1)C(C)=O	71.5%
COc1ccc(N2C3=C(C(=O)CC(C)(C)C3)C(c3ccccc3OC)C3=C2CC(C)(C)CC3=O)cc1	70.6%
CCOC(=O)C1=CN(C)C=C(C(=O)OCC)C1c1ccsc1	125%
Clc1ccc(-c2nc(N3CCCCC3)nc3ccccc23)cc1	61.9%
CC(=O)c1ccc(/C=C/c2nc3ccccc3n2C)o1	70.6%
Cc1cc(=O)oc2c3c4c(cc12)OCCN4CCC3	79.4%
COC(=O)C(C)n1nnc2sc(-c3ccccc3)cc2c1=O (configuration not stated)	143%
COc1ccc(C2C3=C(CC(C)(C)CC3=O)Nc3c2c(=O)n(C)c(=O)n3C)cc1OC (configuration not stated)	118%
CC(=O)Oc1cc2oc(=O)cc(C)c2cc1Cl	121%
CCN(CC)c1ccc2cc(-c3nnc(-c4ccncc4)o3)c(=O)oc2c1	71.5%
CC(=O)N1c2ccccc2C2(O)N=C(C)SC12 (configuration not stated)	52.2%
N=c1c(C(=O)NCc2ccc(F)cc2)cc2c(=O)n3ccccc3nc2n1Cc1cccnc1	72.9%
CCOCCCNC(=S)N1CCCN(c2nc3cc(C)ccc3cc2C#N)CC1	95.5%
N#Cc1c(NC(=O)c2ccc(Br)o2)n(-c2ccccc2)c2nc3ccccc3nc12	70.6%
CCOc1ccccc1N=c1oc2cc(O)ccc2cc1C(=O)NCC1CCCO1 (configuration not stated)	72.9%
CCCCn1c(=O)nc2n(-c3ccccc3)c3ccccc3cc-2c1=O	72.9%
CCSc1sccc1C1C(C#N)=C(N)N(c2cccnc2)C2=C1C(=O)CCC2 (configuration not stated)	74.9%
CC(C)c1cc(N2CCN(C(=O)c3ccco3)CC2)n2c(nc3ccccc32)c1C#N	53.5%
Cc1cc2n(n1)C(c1ccc(N(C)C)cc1)Nc1ccccc1-2 (configuration not stated)	53.1%

Compound	inhibition
O=C(CN1CCN(c2ccc(O)cc2)CC1)NC(c1ccccc1)c1ccccc1	5.1%
CCCCn1c(=NC(=O)c2ccco2)c(C(=O)OCC)cc2c(=O)n3cccc(C)c3nc21	70.6%
COc1ccc2nc(N3CCC(O)CC3)c(C#N)cc2c1	81.9%
Cc1cccn2c(=O)c3cc(C(=O)NCc4ccco4)c(=N)n(C(C)C)c3nc12	72.9%
CCc1c(C)c(C#N)c2[nH]c3ccccc3n2c1=S	157%
N#Cc1c(NC(=O)c2ccccc2Cl)n(Cc2ccccc2)c2nc3ccccc3nc12	118%
CCOc1ccccc1C1C(C#N)=C(N)Oc2cc(N)ccc21 (configuration not stated)	94.8%
Cn1c(=O)c(C=Nc2ccccc2)c(O)c2ccccc21	-16.1%
Oc1ccc(N=Cc2ccc(-c3cccs3)s2)cc1	120%
COc1ccc(C(=O)/C=C2\Sc3ccccc3N2C)cc1	88.5%
Cc1ccc2sc(NC(=O)CSc3nc(C)cc(C)c3C#N)nc2c1	74.8%
CCCCCCc1cc2cc(-c3nnc(-c4cc(OC)c(OC)c(OC)c4)o3)c(=O)oc2cc1O	100%
Cc1c2c(n3c(nc4ccccc43)c1C#N)N(CCCN(C)C)CC2	70.6%
Cc1cccn2c(=O)c3cc(C(=O)NC4CCCC4)c(=N)n(C4CCCC4)c3nc12	71.5%
CC(C)N1CCc2c(sc(NC(=O)CN3C(=O)c4ccccc4C3=O)c2C(N)=O)C1	152%
Cc1cccn2c(=O)c3cc(S(=O)(=O)c4ccccc4)c(=N)n(CC4CCCO4)c3nc12 (configuration not stated)	70.6%
CCOC(=O)c1cc2c(ccc3ccccc32)oc1=O	70.6%
CC(=O)Nc1ccc(N2CCc3c(C)c(C#N)c4nc5ccccc5n4c32)cc1	71.5%
CC(=O)c1c(N2CCN(c3ccccn3)CC2)nc(=S)n(-c2ccccc2)c1C	156%
Cc1cccn2c(=O)c(/C=C(\C#N)C(=O)NCc3ccccc3)c(N3CCC(C(N)=O)CC3)nc12	87.9%
Cc1c2c(n3c(nc4ccccc43)c1C#N)N(c1ccccc1)CC2	71.5%
COc1cc(OC)c(C2CC(=O)N3CN(c4ccc(C)cc4)CSC3=C2C#N)cc1OC (configuration not stated)	170%
Cc1cccn2c(=O)c3cc(C#N)c(=N)n(Cc4ccncc4)c3nc12	171%
CCOC(=O)c1c(N)n(CCOC(=O)c2cccs2)c2nc3ccccc3nc12	118%
CCN1CCc2c(sc(NC(=O)CN3C(=O)c4ccccc4C3=O)c2C(N)=O)C1	122%
Nc1cccc2c1C(=O)N(C(=O)c1cccc(S(=O)(=O)N3CCCC3)c1)C2=O	72.9%

Compound	inhibition
Cc1cc(C)c2c(N)c(C(=O)c3cccc(Cl)c3)sc2n1	59.7%
C=CCn1c(=N)c(C(=O)NCCCOC)cc2c(=O)n3cc(C)ccc3nc21	72.9%
N#C/C(=C/c1ccc(-c2cc(C(=O)O)cc(C(=O)O)c2)o1)c1nc2ccccc2s1	68.1%
COc1ccc(CCn2c(N)c(C(=O)NCc3ccco3)c3nc4ccccc4nc32)cc1	141%
COc1c(O)ccc(/C=C(\C#N)c2nc3ccccc3[nH]2)c1[N+](=O)[O-]	95.5%
CCOC(=O)c1cc2c(=O)n3ccccc3nc2n(C(C)C)c1=NC(=O)c1c(-c2ccccc2Cl)noc1C	71.5%
CCOC(=O)c1cc2c(=O)n3ccccc3nc2n(CCOC)c1=NC(=O)c1ccncc1	97.6%
Cc1cc(C)c2c(n1)nn1c(NCCOCCO)cc(C)nc21	72%
COC(=O)C1=CN(CC2CCCO2)C=C(C(=O)OC)C1c1ccccc1C(F)(F)F (configuration not stated)	97.6%
Cc1[nH]n(-c2ccccc2)c(=S)c1C=Nc1ccc([N+](=O)[O-])cc1	54%
CCN(CC)c1ccc2cc(-c3nnc(-c4ccccc4)o3)c(=O)oc2c1	71.5%
CCOCCCn1c(=NC(=O)c2ccc(OC)c(OC)c2)c(C#N)cc2c(=O)n3cccc(C)c3nc21	166%
CCOC(=O)CC(=O)CSc1nc2c(cc1C#N)CCCCCC2	56.8%
COC(=O)C1=C(C)NC2=C(C(=O)CC(C)(C)C2)C1c1cccc(C)n1 (configuration not stated)	83.5%
CCN(CC)c1ccc2cc(C(N)=O)c(=N)oc2c1	70.6%
CCn1c(=N)c(S(=O)(=O)c2ccccc2)cc2c(=O)n3ccccc3nc21	70.6%
CCc1cc2c(CN3CCN(CC)CC3)cc(=O)oc2cc1O	72.9%
Cc1cc(=O)oc2cc(NS(=O)(=O)c3ccc(F)cc3)ccc12	72.9%
COCCCNc1nc2nonc2nc1N1CCN(Cc2cccc(C)c2)CC1	98.3%
O=C1NC(=S)S/C1=C1\Sc2ccccc2N1CCCS(=O)(=O)O	129%
C=CCOc1c(Br)cc(C2C3=C(CCCC3=O)N(C)C3=C2C(=O)CCC3)cc1OCC	71.5%
CCN1CC=C2C(C1)C(c1ccc(Cl)s1)C(C#N)=C(N)C2(C#N)C#N (configuration not stated)	86.8%
CN1CCc2c(sc3c2C(=O)NC(c2ccccn2)N3)C1 (configuration not stated)	72.9%
CCCCCn1c(NC(=O)c2ccco2)c(S(=O)(=O)c2ccc(C)cc2)c2nc3ccccc3nc21	155%
